In the supplement of paper PMC12217912:
The other results are listed elsewhere or left out. Sequences were assembled here from the parent chain. Inactive controls read about 0.05.

B1: TEV protease; numbered along this chain (parent)
chain: MGESLFKGPRDYNPISSSICHLTNESDGHTTSLYGIGFGPFIITNKHLFRRNNGTLVVQSLHGVFKVKDTTTLQQHLVDGRDMIIIRMPKDFPPFPQKLKFREPQREERICLVTTNFQTKSMSSMVSDTSCTFPSGDGIFWKHWIQTKDGQCGSPLVSTRDGFIVGIHSASNFTNTNNYFTSVPKNFMELLTNQEAQQWVSGWRLNADSVLWGGHKVFMVKPEEPFQPVKEATQL

Variants of: B1
Assay: raw area under fraction-flipped curve 0-4 h after induction (AUC4h, not background-subtracted), DNA-recorder readout of cleavage of the substrate (dimensionless); higher = more cleavage of the substrate by the protease variant
Settings: temperature: 34 °C; time window: 0-4 h after rhamnose induction
Description: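 In vivo DNA recorder in E. coli TOP10(DE3) ΔrhaA at 34 °C. Each TEVp single-site mutant (parent TEVp 0) is paired with a single-site variant of the 7-mer TEVs (canonical ENLYFQ|S). The substrate sits between flexible linkers in a Bxb1-sfGFP-TEVs-SsrA fusion, so cleavage stabilises Bxb1 and speeds flipping of a recombination array, read by NGS. The value is the raw area under the fraction-flipped curve over 0-4 h after rhamnose induction (AUC4h), with ≥20 reads per time point. It is not background-subtracted; inactive controls average about 0.047.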
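Further: Bxb1 expression induced with 0.2% (w/v) L-rhamnose at OD600 near 0.5, cultures sampled hourly, flipped fraction per protease–substrate barcode pair counted by paired-end Illumina sequencing.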

Variant | area with substrate ENLYFQA | area with substrate ENLYFQC | area with substrate ENLYFQD | area with substrate ENLYFQH | area with substrate ENLYFQI | area with substrate ENLYFQK | area with substrate ENLYFQL | area with substrate ENLYFQM | area with substrate ENLYFQN | area with substrate ENLYFQP | area with substrate ENLYFQR | area with substrate ENLYFQS | area with substrate ENLYFQT | area with substrate ENLYFQV | area with substrate ENLYFQW | area with substrate ENLYFQY | area with substrate ENLYFQE | area with substrate ENLYFQF | area with substrate ENLYFQG | area with substrate ENLYFQQ
MGESLFKGPRDYNPISSSICHLTNESDGHTTSLYGIGFGPFIITNKHLFRRNNGTLVVQSLHGVFKVKDTTTLQQHLVDGRDMIIIRMPKDFPPFPQKLKFREPQREERICLVTTNFQTKSMSSMVSDTSCTFPSGDGIFWKHWIQTKDGQCGSPLVSTRDGFIVGIHSASNFTNTNNYFTSVPKNFMELLTNQEAQQWMSGWRLNADSVLWGGHKVFMVKPEEPFQPVKEATQL [V200M] | 0.0709 | 0.0646 | 0.0813 | 0.0652 | 0.0607 | 0.0552 | 0.0674 | 0.0748 | 0.0764 | 0.0553 | 0.0501 | 0.0825 | 0.0603 | 0.0826 | 0.0566 | 0.0468 |  |  |  | 
MGESLFKGPRDYNPISSSICHLTNESDGHTTSLYGIGFGPFIITNKHLFRRNNGTLVVQSLHGVFKVKDTTTLQQHLVDGRDMIIIRMPKDFPPFPQKLKFREPQREERICLVTTNFQTKSMSSMVSDTSCTFPSGDGIFWKHWIQTKDGQCGSPLVSTRDGFIVGIHSASNFTNTNNYFTSVPKNFMELLTNQEAQQWVAGWRLNADSVLWGGHKVFMVKPEEPFQPVKEATQL [S201A] | 0.103 | 0.106 | 0.065 |  | 0.0629 | 0.0819 | 0.0671 | 0.0697 | 0.0704 | 0.0597 | 0.0532 | 0.0961 |  |  |  | 0.0727 | 0.051 |  |  | 
MGESLFKGPRDYNPISSSICHLTNESDGHTTSLYGIGFGPFIITNKHLFRRNNGTLVVQSLHGVFKVKDTTTLQQHLVDGRDMIIIRMPKDFPPFPQKLKFREPQREERICLVTTNFQTKSMSSMVSDTSCTFPSGDGIFWKHWIQTKDGQCGSPLVSTRDGFIVGIHSASNFTNTNNYFTSVPKNFMELLTNQEAQQWVSYWRLNADSVLWGGHKVFMVKPEEPFQPVKEATQL [G202Y] | 0.0685 | 0.0485 | 0.0705 | 0.0517 |  | 0.0582 | 0.0481 |  | 0.078 |  | 0.0606 | 0.065 | 0.055 | 0.0309 |  | 0.0493 |  | 0.0573 | 0.0606 | 0.0345
MGESLFKGPRDYNPISSSICHLTNESDGHTTSLYGIGFGPFIITNKHLFRRNNGTLVVQSLHGVFKVKDTTTLQQHLVDGRDMIIIRMPKDFPPFPQKLKFREPQREERICLVTTNFQTKSMSSMVSDTSCTFPSGDGIFWKHWIQTKDGQCGSPLVSTRDGFIVGIHSASNFTNTNNYFTSVPKNFMELLTNQEAQQWVSGWCLNADSVLWGGHKVFMVKPEEPFQPVKEATQL [R204C] | 0.0938 | 0.131 |  | 0.0998 | 0.0887 |  | 0.0729 |  | 0.102 | 0.0388 | 0.0634 | 0.119 | 0.0852 | 0.0646 | 0.069 | 0.0752 | 0.0643 | 0.0854 | 0.104 | 
